Assay results taken from the supplement of paper PMC3334620.
In all, about 33,000 sequences were measured (“E-score (-0.5 to 0.5)”: median about -0.054, highest 2% from about 0.35 on). Some of the results follow.

Biological target: T1, Stb5 (UniProt P38699)
T1 sequence: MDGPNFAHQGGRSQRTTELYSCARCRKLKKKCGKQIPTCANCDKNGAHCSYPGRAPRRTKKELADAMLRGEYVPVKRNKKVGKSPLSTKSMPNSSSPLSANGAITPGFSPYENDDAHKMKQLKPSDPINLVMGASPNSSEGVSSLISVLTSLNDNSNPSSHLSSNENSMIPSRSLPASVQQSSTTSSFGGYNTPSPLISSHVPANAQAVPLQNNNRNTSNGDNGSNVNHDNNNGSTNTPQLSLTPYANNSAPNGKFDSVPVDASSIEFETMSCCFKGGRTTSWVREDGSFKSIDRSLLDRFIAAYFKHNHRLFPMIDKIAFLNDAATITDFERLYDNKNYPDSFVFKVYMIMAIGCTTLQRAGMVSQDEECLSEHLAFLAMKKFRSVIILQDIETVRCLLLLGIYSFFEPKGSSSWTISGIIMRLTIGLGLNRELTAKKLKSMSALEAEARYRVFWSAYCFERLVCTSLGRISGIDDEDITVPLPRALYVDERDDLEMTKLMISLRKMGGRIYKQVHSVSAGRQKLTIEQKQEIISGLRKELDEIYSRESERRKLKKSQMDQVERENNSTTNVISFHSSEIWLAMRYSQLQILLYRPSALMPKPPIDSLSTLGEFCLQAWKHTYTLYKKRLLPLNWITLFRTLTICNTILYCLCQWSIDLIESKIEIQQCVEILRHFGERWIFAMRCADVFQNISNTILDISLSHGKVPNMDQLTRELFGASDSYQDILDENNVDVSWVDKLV
Assay: PBM E-score (8-mer binding enrichment) (E-score (-0.5 to 0.5)); higher = stronger / more preferred TF binding; most listed sequences are background and not binding sites
Settings: protein concentration: 200 nM; construct: GST-full length
How it was run: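 Using PURExpress in vitro transcription/translation, GST-tagged yeast transcription factors were made in full-length or DNA-binding-domain form. These were applied at about 100-200 nM to double-stranded universal all-10-mer Agilent arrays, and bound protein was detected with fluorescent anti-GST. Scans were normalised with masliner before the Universal PBM Analysis Suite assigned E-scores to ungapped eight-base words pooled with their reverse complements.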

Sequence	PBM E-score
CATTATGG	0.0487
CCTTCGCG	0.0192
ATCTTGTC	-0.0534
CATTCCAG	-0.211
GGAACCCA	-0.0641
AGTGTGGC	-0.0199
ATGTGGCC	-0.0147
ATGGCCGG	0.208
CCCGCTCA	0.295
AGAAGGAG	-0.182
AACGCCAA	-0.0257
GAGTGATA	-0.0804
GACTGGCA	-0.0783
CAATTGGG	-0.198
AGCAATCG	-0.18
CTGGGCGC	-0.0614
AGGATTGA	-0.149
AGAACCAA	-0.313
ACCCAATC	-0.12
CGGTTGTC	0.155
GCGACTAA	-0.0162
ATATCTAC	0.0264

Sequence	PBM E-score
GCCTGTAA	-0.0959
ATCTTCCA	-0.158
AGTTATAG	-0.00158
ATTACCTA	0.0568
CCCAGGCC	-0.116
AGCTCGAC	-0.273
CGGGTAGC	-0.0545
ATATAGCC	0.285
CTTGGCAC	-0.106
GCCAGAAC	-0.192
ACGTTTGA	-0.127
CTTGGCCA	-0.271
AGCTTTAC	-0.103
AGGAAGAA	-0.217
CGTTGACA	-0.0392
GAAAGAAC	-0.055
ACGGGGAC	0.241
AGTGAGAG	-0.131
CAGAGACG	0.0627
GCCCAGCA	-0.188
ACCGCGGA	0.358
ACTACCAA	-0.139

Sequence	PBM E-score
AGATAACC	0.0119
CCGTCCCA	0.18
ATGCTCGA	-0.0755
ATGATAAT	0.0585
GGCCTGGA	-0.104
CACAAGTC	-0.0745
GGGCCATA	0.0906
CTTCGCAA	-0.0239
TATAGCGA	-0.00055
ACGGATAC	0.11
CACCAGCC	0.0128
CTTTGACA	-0.135
ACCGGTAG	0.296
AAACATGA	-0.275
TCTCTTAA	-0.186
AAAGTGGC	-0.165
GATGGGTA	-0.205
AGTGTCCC	0.00631
ATCAGGTC	-0.158
GCTCATAA	0.0681
AATAATCG	-0.0389
ACCCCCCA	-0.204

Sequence	PBM E-score
CGACTGAA	0.0545
CTGTACTC	-0.206
ACGCTTCC	-0.128
ACAATGGA	-0.155
CGCTCCGA	0.231
GGTGGCCA	-0.153
GAAAGATA	-0.155
CGTACTAA	-0.00943
AGTGGGCG	-0.102
AATCCGAC	0.257
CAAGCGTG	-0.307
TCTATACA	-0.034
GACTAAAC	-0.0922
GTGGTGGA	0.0383
CCCACAGA	-0.342
CGGATAGA	0.175
ATCAGATA	-0.0877
ATCTTAGG	-0.195
AACCTCGT	-0.0256
AGACTAGG	-0.276
GGTACCTA	-0.0225
CGATTAGA	-0.0242

Sequence	PBM E-score
AAGAGAGG	-0.157
GAAAAGTC	0.122
AGAATGCT	-0.223
TACATGGA	-0.135
AAATGTTG	-0.224
CCAGCCAC	-0.179
ATTATTGA	-0.0373
CCCCGTAA	0.266
ATGAAACG	0.067
GAGCCTAC	-0.105
CACAGGAC	0.0471
CAAGCGCC	0.251
AGGGTTGC	-0.309
AGTAGTTC	0.101
GTCGGGCA	0.278
ACCTAGAG	-0.0461
ACTTTAGG	-0.124
AAATCGAT	-0.346
CTTTGCAA	0.0832
GACTCCGC	0.333
CCTCTCAG	-0.416
